Reference: the antibiotic and cytotoxicity screens of Wong et al. (2023)
This is one part of the list.

Each molecule was assayed on HSkMC (human skeletal muscle cells) (assay: cytotoxicity call (relative viability < 0.9)). Conditions: 10 µM.
For `Cc1noc(C)c1S(=O)(=O)N(C)C[C@H]1Oc2ccc(NC(=O)CCCN(C)C)cc2C(=O)N([C@H](C)CO)C[C@H]1C`, the cytotoxicity call was “inactive”.
`NCCc1ccc(O)c(O)c1` was tested, and the cytotoxicity call was “inactive”.
For `CO[C@H]1CN(C)C(=O)c2cc(NS(C)(=O)=O)ccc2OC[C@@H](C)N(C(=O)CN(C)C)C[C@H]1C`, the cytotoxicity call was “inactive”.
For `C[C@@H]1CCCCO[C@H](CN(C)C(=O)Nc2ccc3c(c2)OCO3)[C@H](C)CN([C@H](C)CO)C(=O)c2cc(NS(=O)(=O)c3ccc(F)cc3)ccc2O1`, the cytotoxicity call was “inactive”.
For `C[C@H]1CN([C@@H](C)CO)C(=O)c2cccc(NC(=O)Nc3ccc(C(F)(F)F)cc3)c2O[C@@H]1CN(C)S(=O)(=O)c1ccc(Cl)cc1`, the cytotoxicity call was “active”.
With `COc1ccc(S(=O)(=O)Nc2cccc3c2O[C@@H](CN(C)S(=O)(=O)c2c(C)noc2C)[C@H](C)CN([C@@H](C)CO)C3=O)cc1` the cytotoxicity call was “inactive”.
`C[C@@H]1CCCCO[C@@H](CN(C)S(=O)(=O)c2cn(C)cn2)[C@@H](C)CN([C@@H](C)CO)C(=O)c2cc(NS(C)(=O)=O)ccc2O1` was tested, and the cytotoxicity call was “inactive”.
For `COc1ccc2c(c1)OCC(Cc1ccc(OC)c(OC)c1)C2=O` (stereo not given), the cytotoxicity call was “inactive”.
For `C[C@H](CO)N1C[C@H](C)[C@H](CN(C)S(=O)(=O)c2cn(C)cn2)Oc2c(NC(=O)c3ccc(-c4nccs4)cc3)cccc2C1=O`, the cytotoxicity call was “inactive”.
`C[C@H](CO)N1C[C@H](C)[C@@H](CN(C)Cc2ccc3c(c2)OCO3)Oc2ccc(NS(C)(=O)=O)cc2CC1=O` was tested, and the cytotoxicity call was “inactive”.
With `CN1C(C)(C)CCCC1(C)C` the cytotoxicity call was “inactive”.
In the case of `CC(=O)N/C=C1\C(=O)N(C)C(=O)C(C#N)=C1C`, the cytotoxicity call is reported as “inactive”.
In the case of `C[C@@H]1CCCCO[C@@H](CN(C)C(=O)c2ccccc2)[C@@H](C)CN([C@H](C)CO)C(=O)c2cc(NC(=O)Nc3ccc4c(c3)OCO4)ccc2O1`, the cytotoxicity call is reported as “inactive”.
`NS(=O)(=O)Cc1ccccc1F` was tested, and the cytotoxicity call was “inactive”.
For `C[C@H]1CN([C@@H](C)CO)C(=O)c2cc(C#Cc3ccccc3F)cnc2O[C@@H]1CN(C)C(=O)Cc1cccnc1`, the cytotoxicity call was “inactive”.
In the case of `C[C@H]1CN([C@@H](C)CO)C(=O)c2cc(NS(=O)(=O)c3ccc(Cl)cc3)ccc2O[C@@H]1CN(C)Cc1ccc(C(=O)Nc2ccccc2N)cc1`, the cytotoxicity call is reported as “inactive”.
`COC1=C2C[C@@H](C)C[C@H](OC)[C@H](O)[C@@H](C)/C=C(\C)[C@H](OC(N)=O)[C@@H](OC)/C=C/C=C(\C)C(=O)NC(=CC1=O)C2=O` was tested, and the cytotoxicity call was “active”.
With `N#CC1(C#N)[C@H](c2ccccc2)[C@@H]1C(N)=O` the cytotoxicity call was “inactive”.
With `C[C@H]1CN([C@@H](C)CO)C(=O)c2cccc(NC(=O)C3CCCCC3)c2O[C@H]1CN(C)C(=O)Nc1cccc2ccccc12` the cytotoxicity call was “inactive”.
`C[C@@H]1CN([C@H](C)CO)C(=O)Cc2cc(NS(C)(=O)=O)ccc2O[C@H]1CN(C)C(=O)Nc1ccc(F)cc1` was tested, and the cytotoxicity call was “inactive”.
With `CN(C)CCCNC(=O)C[C@@H]1CC[C@@H]2[C@H](COC[C@@H](O)CN2S(=O)(=O)c2ccccc2)O1` the cytotoxicity call was “inactive”.
`CO[C@H]1O[C@H](CO)[C@@H](OC(=O)Nc2ccc(Br)cc2)[C@@H]2OC(=O)[C@H](Cc3cccc(Br)c3)C/C=C/C[C@@H](Cc3cccc(Br)c3)C(=O)O[C@@H]12` was tested, and the cytotoxicity call was “inactive”.
`C[C@H]1CN([C@@H](C)CO)S(=O)(=O)c2ccc(-c3ccc(C#N)cc3)cc2O[C@H]1CN(C)C(=O)CN(C)C` was tested, and the cytotoxicity call was “inactive”.
With `COc1cccc(S(=O)(=O)N(C)C[C@H]2OCc3cnnn3CCCC(=O)N([C@H](C)CO)C[C@@H]2C)c1` the cytotoxicity call was “inactive”.
`C[C@H](CO)N1C[C@H](C)[C@H](CN(C)S(=O)(=O)c2ccc(F)cc2)Oc2c(NS(=O)(=O)c3cn(C)cn3)cccc2C1=O` was tested, and the cytotoxicity call was “inactive”.
With `Cc1noc(C)c1S(=O)(=O)Nc1ccc2c(c1)C(=O)N([C@H](C)CO)C[C@H](C)[C@H](CN(C)C(=O)Nc1ccc3c(c1)OCO3)O2` the cytotoxicity call was “inactive”.
With `C[C@H]1CN([C@@H](C)CO)C(=O)CCCn2cc(nn2)CO[C@H]1CN(C)S(=O)(=O)c1ccc2ccccc2c1` the cytotoxicity call was “inactive”.
`C[C@@H]1CN([C@H](C)CO)C(=O)c2cc(C#CC3(O)CCCC3)cnc2O[C@H]1CN(C)C(=O)Cc1ccncc1` was tested, and the cytotoxicity call was “inactive”.
`Cc1ccc(S(=O)(=O)N2CCN(CC(=O)N/N=C/c3ccccn3)CC2)cc1` was tested, and the cytotoxicity call was “inactive”.
With `C[C@H](CO)N1C[C@H](C)[C@H](CN(C)S(=O)(=O)c2ccc(C#N)cc2)Oc2ncc(-c3ccc(F)cc3)cc2C1=O` the cytotoxicity call was “inactive”.
In the case of `C=CC[C@H](CC(=O)N(CCO)Cc1ccccc1)C(=O)N[C@H](COC(=O)[C@@H](CC=C)Cc1ccc(F)cc1)C(C)(C)C`, the cytotoxicity call is reported as “inactive”.
For `C[C@H]1CN([C@@H](C)CO)C(=O)c2cccc(NC(=O)C3CCOCC3)c2O[C@H]1CN(C)C(=O)Nc1ccccc1`, the cytotoxicity call was “inactive”.
`COc1ccc(C[C@H](N)C(=O)N[C@H]2[C@@H](O)[C@@H](n3cnc4c(N(C)C)ncnc43)O[C@@H]2CO)cc1` was tested, and the cytotoxicity call was “active”.
In the case of `C[C@H](CO)N1C[C@H](C)[C@@H](CN(C)Cc2ccccc2)OCCCC[C@H](C)Oc2ccc(NC(=O)Nc3ccc(F)cc3)cc2C1=O`, the cytotoxicity call is reported as “inactive”.
With `C[C@@H]1CCCCO[C@@H](CN(C)C(=O)CCC(F)(F)F)[C@@H](C)CN([C@H](C)CO)C(=O)c2cc(NC(=O)NC3CCCCC3)ccc2O1` the cytotoxicity call was “inactive”.
`Cl.Nc1c(Br)cc(Br)cc1CNC1CCC(O)CC1` (stereo not given) was tested, and the cytotoxicity call was “inactive”.
With `C[C@H](C(=O)N(C)C[C@@H]1OCc2ccccc2-c2c(n(C)c3ccccc23)C(=O)N([C@@H](C)CO)C[C@H]1C)c1ccccc1` the cytotoxicity call was “inactive”.
For `Cc1nc(=O)c2c([nH]1)CCSC2`, the cytotoxicity call was “inactive”.
In the case of `C[C@H](CO)N1C[C@H](C)[C@H](CN(C)C(=O)Nc2ccccc2)Oc2ccc(NC(=O)CCCCCC(=O)Nc3ccccc3N)cc2CC1=O`, the cytotoxicity call is reported as “inactive”.
`COc1ccc2c3c([nH]c2c1)[C@H](CO)N(CC1CCCC1)C[C@]13CCN(CC1)C(=O)c1ccc(cc1)F` was tested, and the cytotoxicity call was “active”.
